# Measured values from the supplement of paper PMC11417369.
# The other results are listed elsewhere or left out.
# Test system: PF3D7_0420300 AP2 domain 1 (GST-tagged)
# Assay: gcPBM binding intensity (ln(normalized median fluorescence intensity)); higher = stronger DNA binding
# Method in brief: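 Binding intensity is the highest Masliner-normalised natural-log median intensity over replicate spots in either probe orientation. To obtain it, GST-tagged P. falciparum DNA-binding domains made in E. coli were incubated for 1 h on an Agilent 4 × 180k array of primer-extended double-stranded 36-bp intergenic genomic probes plus negative controls. Detection used Alexa488 anti-GST antibody with scanning at 488 nm.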
row,Sequence,gcPBM binding intensity (ln)
1,AGTCATATAAATAGTAGTACTGTGTGTGAAGAAAAA [XGTACX_site5056],9.7
2,GACTGCACTTTAAGCACACAAATATATTTTTTTTAT [CACACA_site1249],9.35
3,ATCAAATTTGGACATGCATGTGTGTGTAAAACCATG [TGCATGCA_site309],10
4,ATATTAGTCGAATGATGTACACACATACAAAACATT [XGTACX_site8613],9.73
5,TTCTTCAATAATAAGTGTACATATGCATACATTATA [XGTACX_site1502],9.17
6,AATTAAAAAATTTATGCACACTTTAAAAAAAAAAAA [CACACA_site5962],9.06
7,ATAATAAAATAAGAAGCACACAAATATTATATATAA [CACACA_site9319],9.76
8,AAAAAAAATAAAAATAGTACTCAAAAAATTATGAAT [XGTACX_site3073],9.19
9,ATATTAATTTCTTATGCATGTTCTACCAAATTGTAT [TGCATGCA_site38],9.51
10,GATATGATATGATATGCATGTAACAAATTTTTTTAA [TGCATGCA_site268],9.02
11,AAAAAAAAATATATATATATATATATATTTATGTAT [GTGCAC_negctrl_site483],9.04
12,TATATATAATATACATGTACAAATGTATTTAAAAAT [XGTACX_site6090],9.31
13,CAAAAAAAGAAAGCTACACACATTTATGTGCTATAT [CACACA_site2777],9.45
14,AATTAAAAATTCAAGTGTACTTTTATATTATTATAC [XGTACX_site4106],9.12
15,ATTATAATAGTTAAATGTACACACTAACTACATGGA [XGTACX_site6918],9.36
16,ATTCGGATATATATCACACATAACTTTAATAATATA [CACACA_site5720],9.21
17,TAAATAGCCAAACGCACACCCACAAAAAAAAAAAAA [CACACA_site1554],9.31
18,CTCAACATATACGTAACACACATATATATATATATA [CACACA_site3838],9.41
19,TCTACAAGGCTTGATCGTACAATTTGAATGTATTTG [XGTACX_site7698],9.24
20,AGCATAAACAATTTTTGAAAAAATATACACTCATAG [CACACA_negctrl_site890],9.16
21,TATATATATATATACACACACACAAAAAAAAAAAAA [CACACA_site1505],10.1
22,AAAATAACGAGTCAAACACACATATATATATATATA [CACACA_site2039],9.47

row,Sequence,gcPBM binding intensity (ln)
1,TATGCAAGGAACCACACACACACACCCAAATGTATA [CACACA_site750],10.1
2,TATCTCTCTTTCTGCTGTACATAAAAATTATATAAT [XGTACX_site5961],9.37
3,AACATATTTTTAAATACACACACATAAAAAAAAAAA [CACACA_site8279],9.85
4,TAATATTTATTCTATTGTACATAAAATATATATATA [XGTACX_site7132],9.06
5,GGAAAGACATTACACAGTACCCAGGAAATCTACGGA [XGTACX_site2002],9.39
6,ATTATATATGTATAAATATGCTATATATATATATAT [GTGCAC_negctrl_site430],9.08
7,TCAACATTTAAAAATAGTACTCATAAACCTTTCGAA [XGTACX_site4111],9.02
8,ATAAATAAAAAACACACACACACACCCAAAAAAAAA [CACACA_site2624],10.1
9,TATACATATGTATGCACACATACATACACATAGAAT [CACACA_site3480],9.43
10,TATATTATTTAAAAAGTGCAGTTACAAGATGAACCT [GTGCAC_site9641],9.14
11,ATTGATTTTTAATATACACACATAAGGACCACAAAA [CACACA_site4344],9.83
12,AGAGAATATTTCCACACATGCAAATGTTATATGTAA [TGCATGCA_site282],9.24
13,AATACGCATTTTAGTACACACTTAAAAAGTTATTTT [CACACA_site7401],9.28
14,AATTATATTAATTCTTCATTACATTTTAAAATATTA [XGTACX_negctrl_site510],9.12
15,TGCTATTATTTATGTACACACCAATTTATTTATAAT [CACACA_site6029],9.54
16,TTCGTTATATTTTGATGTACTGATTCATATATATAT [XGTACX_site1835],9.5
17,AAAAAAAAAAAACACACACACACATTCAATATAAAA [CACACA_site40],10
18,ATATGTATTTATGTATTTATGTATTTTTATATTTTT [CACACA_negctrl_site595],9.66
19,GGAATTTTTATTCGAAGTACTGTTGTGAGTAATAAA [XGTACX_site8599],8.97
20,TAAATGTTAAAATTCACACAAATATGTGCGGAATAT [CACACA_site5055],9.22
21,TTTGACTAAATTAAATATTAAAGTATGGATTATTCT [CACACA_negctrl_site833],8.91
22,ATATATAATATATACACACACATGTATATATAAATA [CACACA_site1968],9.68

row,Sequence,gcPBM binding intensity (ln)
1,ACCCATTTGATAATAATGCACACCACATATATTTAT [CACACA_site3061],9.62
2,TGCAAGGAACAACACACACACACATAAATGTATATA [CACACA_site8149],10.2
3,AATATATTTTAGAGTTTTATATATTTTATGCATATA [GTGCAC_negctrl_site710],9.3
4,TTCAAACATATTAATTGTACATACAACAAAACCATG [XGTACX_site5149],9.34
5,ATATTATTTTATGCTACACACATTTTCTCTTATAAA [CACACA_site943],9.87
6,TGGAAAATAAAGTACGCACACAAAAATTCTCTTCAT [CACACA_site2327],9.52
7,GTTTGGTGGTGTTTTGGTACGTACGGGGGTGTATGT [XGTACX_site1211],10.1
8,ATATTTATGGAATATACACACATGTATAATTACATA [CACACA_site7045],9.35
9,TCTTTGTACTTTCACATGTACACCCAAATGGAAATT [CACACA_negctrl_site1442],9.14
10,AAATAAATCTTATGCACACAAATAATTAATGAAACA [CACACA_site5011],9.4
11,AGGACTAATATTTGAACACACATATAATAAATACAT [CACACA_site6068],9.61
12,AAGACCATATGAATAATGCACACGTTTTAAAATATT [CACACA_site2323],9.39
13,TTTCCATTTTCTCTATGTACATAAAAATGAGATAAA [XGTACX_site5689],8.9
14,CACACGCACGGACACACACACAAAAAAAAAAAGAAA [CACACA_site6378],9.7
15,TATTTATATTCATAATGTACATTCAATTATTGTTTT [XGTACX_site4191],9.49
16,AAATATTAAATGACAAAAAAAAAAAAAAAAGGGGTT [CACACA_negctrl_site951],9.81
17,TTCTTTATTTTTTCTACACACATTATATATTCAAAG [CACACA_site5866],9.86
18,TATTTTGAAAATAAAAGTACAAATTTTATATTTAAA [XGTACX_site3238],8.7
19,ATTTTTTTTTCTTAATGTACATACCAAAAAGAAAGA [XGTACX_site5471],8.84
20,TATAATATATTTTAATGTACGTACATCCCGATTAAT [XGTACX_site7651],9.17
21,TTTGTCTGCATACGCACACACGTGTACCATCTTATG [CACACA_site4784],9.68
22,GATAAAATATGTTGCCGTACATATTCATATACTTAA [XGTACX_site4776],9.27

row,Sequence,gcPBM binding intensity (ln)
1,TATTAATATATATGTTGTACAAGTTTTTTTTTTTTT [XGTACX_site5865],9.24
2,TTCTATATTTCTTTTTGTACATATAAATTCAAATAA [XGTACX_site2476],9.17
3,TATATACGCATTTTTATACACACTTGTTTTATAAAA [CACACA_site727],9.42
4,ATATAAAATAATACATGTACATATTATATATATATA [XGTACX_site1082],9.26
5,TACAGATATTTTATTTCACACATTTTATCATTTTCT [CACACA_site5701],9.59
6,TTCAAAAAAGGAAAGTTGCACTTGATACGCTTATTA [GTGCAC_site9411],8.87
7,AAGAAATAAATACATACACACATATATATATATATA [CACACA_site3362],9.49
8,ATAAGTAATATAATATGTACATATATATATATATAT [XGTACX_site3818],9.3
9,TATATATTGTTATAATGTACATAATATTTTATCTGC [XGTACX_site4983],9.19
10,GGAAATTTCAATATTTGTACATATATATATATATAT [XGTACX_site3222],9.16
11,AGAATAATTTTATCGGTACACACTGTATGCATAATA [CACACA_site374],9.46
12,ATGCAAAATAAAGAAGCACACAAAAATGAAATATAT [CACACA_site9217],9.75
13,TAAAAGTTCACCTGTACACACATATATATATGTACA [CACACA_site1707],9.44
14,TTTTTTATTTTTTGTTATATTTATAATAATTTATGA [XGTACX_negctrl_site260],9.2
15,TACTTTACACATATTTTTAATTATTCTGAATTCAAA [GTGCAC_negctrl_site253],9.08
16,ATATATATATATGTAGTGCATTTTATATATAATATT,9.22
17,AACATAAAACGTAATATATTACAAATATAAACAATC [CACACA_negctrl_site1675],9.82
18,TTACCATTTGAAAATTCACACACTTTATTTTGTTAT [CACACA_site3799],9.64
19,ATATATATATATATATGTACATATTTTATAACTGTA [XGTACX_site5395],9.24
20,ATTTATACATATAAACGTACATACATATATAATATT [XGTACX_site2969],9.3
21,AACAAAAGTAATTAAAAACAATACAAACATATGTTT [XGTACX_negctrl_site220],9.2
22,TGGATAAAATAAAAATGTACTTAACATTTATATTTT [XGTACX_site712],8.9
